This is an account of results in patent US20190218262A1 (published 2019).

Test [1] deals with T1, human BMP10 (human, UniProt O95393 317-424).
T1 construct: Bought from R&D Systems
T1 sequence (looked up): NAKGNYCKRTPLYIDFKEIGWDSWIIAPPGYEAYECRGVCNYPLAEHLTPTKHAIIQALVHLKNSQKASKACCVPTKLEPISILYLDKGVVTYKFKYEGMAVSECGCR
The test is described as follows: SPR (BIACORE), TWSG-Fc captured with anti-Fc antibody, 37 C. In general terms: In SPR one partner is held on a chip, and binding of the other changes the refractive index at the surface.

The target in test [2] is T2, human BMP9 (human, UniProt Q9UK05 320-429).
T2 construct: Bought from R&D Systems
T2 sequence (looked up): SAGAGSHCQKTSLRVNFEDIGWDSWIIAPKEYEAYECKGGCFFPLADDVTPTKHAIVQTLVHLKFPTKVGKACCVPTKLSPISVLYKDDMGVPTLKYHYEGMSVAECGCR
The test is described as follows: SPR (BIACORE), TWSG-Fc captured with anti-Fc antibody, ligand injected, 37 C. An excerpt: (§1) Previous studies have determined that TWSG, or its nonmammalian homolog Tsg, binds with high affinity to BMP2, BMP4, and BMP7 (Oelgeschläger et al., 2000, Nature 405:757-763; Scott et al., 2001, Nature 410:475-478; Chang et al., 2001, Nature 410:483-487). Since these studies have not systematically evaluated TWSG (or Tsg) binding to other TGFβ superfamily ligands, Applicants used surface plasmon resonance to investigate and characterize such binding. In an initial qualitative screen, recombinant murine TWSG (mTWSG; R&D Systems, Minneapolis, Minn.) was covalently immobilized on a BIACORE™ CMS chip, and more than 30 ligands generated in-house or obtained from R&D Systems were injected individually over the captured mTWSG to characterize their degree of binding at room temperature. Based on the results of this screen, Applicants subjected selected ligands to quantitative characterization of binding to human TWSG fusion protein at physiologic temperature. For this analysis, TWSG-Fc was expressed in CHO cells, purified as described in Example 1, captured on a BIACORE™ chip with anti-Fc antibody, and tested by surface plasmon resonance with the following ligands at 37° C.

Test [3] concerns the target T3, human BMP2 (human, UniProt P12643 283-396).
T3 construct: Bought from R&D Systems
T3 sequence (looked up): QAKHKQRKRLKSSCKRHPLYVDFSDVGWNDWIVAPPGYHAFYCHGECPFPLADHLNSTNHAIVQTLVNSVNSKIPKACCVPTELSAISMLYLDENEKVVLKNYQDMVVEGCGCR
The description is as above.
From the text: as §1

The target in test [4] is T4, human BMP6 (human, UniProt P22004 382-513, limits assumed).
T4 construct: Bought from R&D Systems
T4 sequence (looked up): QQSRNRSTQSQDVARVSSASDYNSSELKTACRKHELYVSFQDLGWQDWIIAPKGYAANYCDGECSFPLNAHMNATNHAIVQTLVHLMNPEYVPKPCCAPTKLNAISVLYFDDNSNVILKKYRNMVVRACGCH
Described as above.
From the text: as §1

The target of test [5] is T5, human BMP4 (human, UniProt P12644 293-408).
T5 construct: Bought from R&D Systems
T5 sequence (looked up): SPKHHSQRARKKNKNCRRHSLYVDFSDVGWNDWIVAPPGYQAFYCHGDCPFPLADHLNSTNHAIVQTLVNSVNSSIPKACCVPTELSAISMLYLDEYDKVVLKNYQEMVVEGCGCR
Described as above.
From the text: as §1

In test [6] the target is T6, human BMP7 (human, UniProt P18075 293-431).
T6 construct: Bought from R&D Systems
T6 sequence (looked up): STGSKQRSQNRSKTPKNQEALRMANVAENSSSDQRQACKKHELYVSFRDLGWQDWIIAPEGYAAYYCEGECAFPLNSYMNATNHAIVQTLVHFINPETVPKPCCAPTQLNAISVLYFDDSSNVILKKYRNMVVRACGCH
The test is described as above.
From the text: as §1

For test [7], the target named is T1, human BMP10. The test is described as follows: cell-based or functional assay.
In test [8] the target is T2, human BMP9. Briefly: cell-based or functional assay.
Test [9] concerns the target T3, human BMP2. Briefly: cell-based or functional assay.
Test [10] deals with T4, human BMP6. Briefly: cell-based or functional assay.
In test [11] the target is T5, human BMP4. The test is described as follows: cell-based or functional assay.
The target in test [12] is T6, human BMP7. Briefly: cell-based or functional assay.

Values joined by “and” are separate entries in the source; they are usually repeats but may differ in a detail not shown here. Equal values may be shown once.

B1: human TWSG-Fc fusion protein (Fc fusion)
chain: CNKALCASDVSKCLIQELCQCRPGEGNCSCCKECMLCLGALWDECCDCVGMCNPRNYSDTPPTSKSTVEELHEPIPSLFRALTEGDTQLNWNIVSFPVAEELSHHENLVSFLETVNQPHHQNVSVPSNNVHAPYSSDKEHMCTVVYFDDCMSIHQCKISCESMGASKYRWFHNACCECIGPECIDYGSKTVKCMNCMFTG[no letters for human IgG1 Fc and a few adjoining residues]
notes: Captured on the chip with anti-Fc antibody for SPR; also called hTWSG-hFc; TWSG-hFc
Regarding B1, the binding result with human BMP10 [1] is “no binding”. For the same molecule, the Kd (as a rule, a measure of binding affinity in units of concentration) with human BMP9 [2] was 4.4 nM; with human BMP2 [3], 0.3 nM; in the test with human BMP6 [4] it was 0.23 nM; with human BMP4 [5] it was 0.23 nM; with human BMP7 [6], 0.33 nM. Besides, the koff – broadly, the rate constant with which the complex falls apart – worked out at 0.025 s⁻¹ with human BMP9 [2]; 0.0022 s⁻¹ with human BMP2 [3]; 0.0019 s⁻¹ with human BMP6 [4]; 0.0014 s⁻¹ in the test with human BMP4 [5]; 0.0016 s⁻¹ with human BMP7 [6]. Moreover, the kon (as a rule, a measure of how fast the partners come together) with human BMP2 [3] was found to be 7.4e+06 M⁻¹ s⁻¹; in the test with human BMP6 [4], 8.2e+06 M⁻¹ s⁻¹; in the test with human BMP7 [6] it was 4.8e+06 M⁻¹ s⁻¹. The “IC50, BRE-luciferase reporter gene assay (T98G or HepG2 cells)” value is > 3000 ng/mL and > 31 nM with human BMP10 [7]; > 31 nM and > 3000 ng/mL in the test with human BMP9 [8]; 2960 ng/mL and 31 nM with human BMP2 [9]; 351 ng/mL and 3.7 nM with human BMP6 [10]; 208 ng/mL and 2.2 nM in the test with human BMP4 [11]; 1.5 nM in the test with human BMP7 [12].
